In PubChem BioAssay AID624417 (National Center for Advancing Translational Sciences (NCATS), 2012):
About 6,400 (1.6%) of roughly 410,000 compounds were called active. Inconclusive results, whose numbers are uncertain, are shown with a selection of clear calls. Calls come from the whole dose curve; as a rule, active = well fitted inhibition curve with a large enough effect; inconclusive = small, poorly fitted or top-dose-only effect; inactive = no such curve, though single readings can be large or run the other way. No potency is given beside an inconclusive call; the fits are too rough.

Molecular target: Glucagon-like peptide 1 receptor (Homo sapiens) (UniProt P43220)
Assay: qHTS of GLP-1 Receptor Inverse Agonists (Inhibition Mode); note: nearly all actives have a fitted effect of over 55% in size
Details: HEK293 GLP-1R CRE-luciferase, luminescence, 24 h, GLP-1R form is constitutively active; activity change, negative = inhibition: at 38.3 µM (top of the series) unless noted
Summary of the method: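 Stable HEK293 clone (constitutively active GLP-1R + cAMP-response luciferase); 200 cells/uL plated, 12 h pre-culture, compound 24 hr, 37 deg C/5% CO2; detection reagent 12 min RT; luminescence.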
% is set by controls: 0 for no effect and ±100 for the full control effect; potency is the fitted concentration of half-maximal effect; tags give direction and shape of the fitted curve.

UniProt P43220, sequence (P43220 whole entry, looked up): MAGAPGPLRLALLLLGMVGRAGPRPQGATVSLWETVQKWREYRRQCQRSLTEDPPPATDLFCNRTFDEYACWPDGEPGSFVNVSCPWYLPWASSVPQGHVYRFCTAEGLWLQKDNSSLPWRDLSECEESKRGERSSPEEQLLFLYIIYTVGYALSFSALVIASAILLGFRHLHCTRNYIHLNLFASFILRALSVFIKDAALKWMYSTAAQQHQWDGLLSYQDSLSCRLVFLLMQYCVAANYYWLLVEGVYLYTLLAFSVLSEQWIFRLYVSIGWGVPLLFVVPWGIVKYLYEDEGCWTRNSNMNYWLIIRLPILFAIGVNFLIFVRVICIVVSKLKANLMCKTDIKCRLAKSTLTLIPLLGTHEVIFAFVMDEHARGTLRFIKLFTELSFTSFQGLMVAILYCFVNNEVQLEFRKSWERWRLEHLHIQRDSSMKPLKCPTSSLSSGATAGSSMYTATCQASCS

Row | SMILES | Potency | activity change, negative = inhibition
1 | CCOC(=O)c1c(C)[nH]c(C)c1S(=O)(=O)N1CCC(C(=O)N2CCN(c3cccc(C)c3)C(C)C2)CC1 (stereo not drawn) | inconclusive [inhibitor, partial curve, poor fit] | 
2 | COc1ccc(Nc2ncccc2C(=O)Nc2ccccc2)cc1 | inconclusive [inhibitor, single point] | 
3 | Cc1ccc(NC(=O)CSc2ncnc3ccccc23)cc1S(=O)(=O)N1CCCCC1 | inconclusive [inhibitor, partial curve, poor fit] | 
4 | COc1ccc(C(=O)Nc2sc(C)c(-c3ccccc3)c2C#N)cc1OC | inconclusive [inhibitor, partial curve, poor fit] | 
5 | COc1ccc(C(=O)Cn2nc(CNc3ccc(Br)cc3)[n+]3c2CCCCC3)cc1 | inconclusive [inhibitor, single point] | 
6 | Cc1ccc(O)c(NC(=O)CSc2n[nH]c(C)c2[N+](=O)[O-])c1 | inconclusive [inhibitor, single point] | 
7 | CNC(=S)N/N=C/c1cccc(OCc2ccccc2F)c1 | inconclusive [inhibitor, single point] | 
8 | FC(F)(F)c1nc2nc(Cl)c(Cl)nc2[nH]1 | inconclusive [inhibitor, single point] | 
9 | Cc1ccc(C)c(NC(=O)Nc2nnc(N(CC(C)C)CC(C)C)s2)c1 | inconclusive [inhibitor, full curve, poor fit] | 
10 | CCCCCC(=O)Nc1ccc2ccccc2c1 | inconclusive [inhibitor, single point] | 
11 | O=C(Nc1ccc(-c2nc3cccnc3s2)cc1)c1ccc(Cl)nc1 | inactive | 
12 | CCOC(=O)C1(CCOc2ccccc2)CCN(Cc2cc(OC)c3c(c2)OCO3)CC1 | inconclusive [inhibitor, partial curve, poor fit] | 
13 | O=C(CSc1nc(-c2ccccc2)c(-c2ccccc2)[nH]1)Nc1ccc2c(c1)OCO2 | inactive | 
14 | O=C(CCOc1ccccc1)Nc1cccc(S(=O)(=O)Nc2ccccc2Cl)c1 | inconclusive [inhibitor, partial curve, poor fit] | 
15 | O=C(CN(Cc1ccccc1)C(=O)CCl)c1cccc(Br)c1 | inconclusive [inhibitor, partial curve, poor fit] | 
16 | CCC[C@@H](CN[C@@H](CNC)[C@H](C)CC)NCC1CCC(C(C)(C)C)CC1 (stereo partly drawn) | active: 10 µM | 
17 | Cc1ccc(C(=O)N(CC(C)C)c2nc3ccccc3s2)o1 |  | inconclusive: -85.3% [inhibitor]
18 | C=C1CCN(c2ccc(C(=O)NCc3ccc(C)cc3)cc2[N+](=O)[O-])CC1 | inconclusive [inhibitor, single point] | 
19 | CC(=O)N1CCN(c2ccc(Nc3ncnc4c3oc3ccccc34)cc2)CC1 | inconclusive [inhibitor, single point] | 
20 | NCCC(=O)N1c2ccccc2Sc2ccc(Cl)cc21 | inconclusive [inhibitor, single point] | 
21 | CCN(C(=O)COC(=O)c1ccccc1Cc1ccccc1)c1c(N)n(Cc2ccccc2)c(=O)[nH]c1=O | inconclusive [inhibitor, single point] | 

Row | SMILES | Potency | activity change, negative = inhibition
22 | Cc1ccc(CNC(=O)c2nnn(-c3cccc(C)c3)c2N)cc1 | inconclusive [inhibitor, single point] | 
23 | CCN(CC)c1ccc(NC(=O)c2cnccn2)cc1S(=O)(=O)Nc1ccc(OC)cc1 | inconclusive [inhibitor, single point] | 
24 | Cc1[nH]c(C)c(S(=O)(=O)N2CCN(c3cccc(Cl)c3)CC2)c1C(=O)N1CCCCC1 | inconclusive [inhibitor, full curve, poor fit] | 
25 | O=C(NCC(=O)N1CCN(c2ncc(C(F)(F)F)cc2Cl)CC1)c1ccc(Br)o1 | inconclusive [inhibitor, single point] | 
26 | CCCCSc1nnc([C@@H](NC(=O)OC(C)(C)C)C(C)C)o1 | inconclusive [inhibitor, partial curve, poor fit] | 
27 | Cc1c(N/N=C(\C#N)C(=O)c2ccccc2)c(=O)n(-c2ccccc2)n1C | inconclusive [inhibitor, partial curve, poor fit] | 
28 | O=C(CN1CCN(c2ccccc2)CC1)c1c[nH]c2ccccc12 |  | inconclusive: -40.6% [inhibitor]
29 | Cc1oc2c(c1C(=O)N1CCOCC1)C(=O)c1ccccc1C2=O | inconclusive [inhibitor, partial curve, poor fit] | 
30 | O=C(Nc1nc2c(s1)CCCC2)c1ccc2ncsc2c1 | inconclusive [inhibitor, single point] | 
31 | S=c1[nH]nc(CCc2ccccc2)n1-c1ccccc1 | inactive | 
32 | O=C(CSc1nc2ccccc2c(=O)n1CCCN1CCOCC1)c1c[nH]c2ccccc12 | inconclusive [inhibitor, partial curve, poor fit] | 
33 | CCOc1ccc(OCC)c(NC(=O)c2nnn(Cc3cc(Br)ccc3OC)c2N)c1 | inconclusive [inhibitor, partial curve, poor fit] | 
34 | CCc1ccc(NC2=CC(=O)C(=O)c3ccccc32)cc1 | inactive | 
35 | O=C(NC1CCCCC1)C(c1ccccc1)N1CCc2ccccc21 (stereo not drawn) | inconclusive [inhibitor, partial curve, poor fit] | 
36 | COCCCNC(=O)c1cn(CC(C)C)c(=O)c2c1c1ccccc1n2C | inactive | 
37 | Cc1cccc(C(=O)NC(=S)Nc2ccc(S(=O)(=O)N(C)c3ccccc3)cc2)c1 | inconclusive [inhibitor, partial curve, poor fit] | 
38 | CC(C)CCN(C(=O)Cc1ccc(Cl)c(Cl)c1)c1c(N)n(Cc2ccccc2)c(=O)[nH]c1=O | inactive | 
39 | Cc1ccc(N2C(=O)C(CC(=O)Nc3ccc(F)cc3)N(CCC3=CCCCC3)C2=O)cc1 (stereo not drawn) | inconclusive [inhibitor, single point] | 
40 | COc1ccc(NC(=O)CN(C)C(=O)c2cc3c(s2)CCC3)cc1 | inactive | 
41 | COc1cccc(NC(=O)C2(C)CCN2Cc2ccccc2OC(F)F)c1 (stereo not drawn) | inconclusive [inhibitor, full curve, poor fit] | 
42 | CCc1nc2ccccc2c(C(=O)OCC(=O)Nc2ccc(S(=O)(=O)N3CCOCC3)cc2)c1C | inconclusive [inhibitor, partial curve, poor fit] | 

Row | SMILES | Potency | activity change, negative = inhibition
43 | CC1(C(=O)NCCC#N)CCN1C(=O)C1(c2ccccc2)CC1 (stereo not drawn) | inactive | 
44 | COC(=O)c1ccc(C(=O)OC)c(NC(=O)COC(=O)CC2CC3CCC2C3)c1 (stereo not drawn) | inconclusive [inhibitor, single point] | 
45 | Cc1ccc(S(=O)(=O)Nc2cc(C)cn(Cc3ccc(F)cc3)c2=O)cc1 | inconclusive [inhibitor, single point] | 
46 | CCOc1ccc(-c2cc(C(=O)NCC3CCCO3)c3ccccc3n2)cc1 (stereo not drawn) | inconclusive [inhibitor, partial curve, poor fit] | 
47 | Cc1cccc(C)c1Nc1c(-c2ccccc2Cl)nc2cnccn12 | inconclusive [inhibitor, partial curve, poor fit] | 
48 | Brc1ccc(Cn2c(-c3ccc(Br)o3)nc3ccccc32)o1 | inconclusive [inhibitor, single point] | 
49 | CCN1CCN(Cc2nc3cc(NC(=O)COc4ccc([N+](=O)[O-])cc4)ccc3n2C)CC1 | inconclusive [inhibitor, partial curve, poor fit] | 
50 | O=C(c1ccc2c(c1)N(Cc1ccc(Cl)cc1)C(=O)c1ccccc1S2(=O)=O)N1CCCCCC1 | inconclusive [inhibitor, partial curve, poor fit] | 
51 | CCCN(Cc1cccs1)C(=O)Nc1cc(C)ccc1OC | inconclusive [inhibitor, single point] | 
52 | Cc1ccc(Cc2c(-c3cccc(Cl)c3)nc3c(C)cc(Br)cn23)cc1 | inactive | 
53 | COc1ccc(-c2csc(NC(=O)Cc3ccccc3F)n2)c(OC)c1 | inconclusive [inhibitor, single point] | 
54 | Oc1cccc(-c2nc3ccccc3s2)c1 | inconclusive [inhibitor, single point] | 
55 | Cc1ccc(C(=O)CN2C(=O)NC3(CCCCCC3)C2=O)c(C)c1 | inconclusive [inhibitor, partial curve, poor fit] | 
56 | CCCCN1CC(c2nc3ccccc3n2CCCCOc2ccccc2C)CC1=O (stereo not drawn) | inconclusive [inhibitor, single point] | 
57 | CCN(C(=O)COC(=O)c1oc2ccc(OC)cc2c1C)C1CCCCC1 | inconclusive [inhibitor, partial curve, poor fit] | 
58 | CCCCCn1c(=S)[nH]c2cc(C(=O)N3CCN(C(=O)OCC)CC3)ccc2c1=O | inactive | 
59 | C=CCn1c(CCC(O)COCCC)n[nH]c1=S (stereo not drawn) | inconclusive [inhibitor, full curve, poor fit] | 
60 | CN(C)c1ccc(NC(=O)CCCc2ccccc2)cc1 | inconclusive [inhibitor, single point] | 
61 | COc1ccc(NC(=O)CSc2nc3ncccc3[nH]2)cc1OC | inactive | 
62 | COc1ccc(C(=O)c2coc3ccc(O)cc23)cc1 | inconclusive [inhibitor, single point] | 
63 | Cc1ccc(CN2CCN(Cc3ccc(C)s3)CC2CCO)cc1 (stereo not drawn) | inconclusive [inhibitor, single point] | 
